# PubChem BioAssay AID588795 (National Center for Advancing Translational Sciences (NCATS), 2011)
# About 1,400 (0.36%) of roughly 390,000 compounds were called active. Inconclusive results, whose numbers are uncertain, are shown with a selection of clear calls. Calls follow the shape of the dose curve; as a rule, active = well fitted inhibition curve with a large enough effect; inconclusive = small, poorly fitted or top-dose-only effect; inactive = no such curve, though single readings can be large or run the other way. Potencies of inconclusive entries are doubtful fits and often do not repeat.
# Target: Flap endonuclease 1 (Homo sapiens) (UniProt P39748)
# Sequence of UniProt P39748 (P39748 whole entry, looked up): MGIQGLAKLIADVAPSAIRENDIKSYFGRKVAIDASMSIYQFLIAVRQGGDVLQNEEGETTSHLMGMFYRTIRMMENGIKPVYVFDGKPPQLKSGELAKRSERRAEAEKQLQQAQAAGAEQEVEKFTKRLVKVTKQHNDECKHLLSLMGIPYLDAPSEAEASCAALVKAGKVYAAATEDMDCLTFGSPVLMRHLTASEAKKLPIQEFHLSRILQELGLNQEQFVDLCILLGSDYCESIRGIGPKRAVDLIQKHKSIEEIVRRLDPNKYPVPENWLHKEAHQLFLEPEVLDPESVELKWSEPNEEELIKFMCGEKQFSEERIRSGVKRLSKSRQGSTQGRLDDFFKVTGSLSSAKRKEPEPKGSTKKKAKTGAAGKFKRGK
# Assay: qHTS Assay for the Inhibitors of Human Flap endonuclease 1 (FEN1). Also: nearly all actives have a fitted effect of over 65% in size.
# Details: Recombinant FEN1 flap cleavage, fluorescence, 15 min; series mostly up to 114 µM; activity change, negative = inhibition: at the top concentration
# Method in brief: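 FEN1 at 10 nM preincubated with compounds 15 min at room temperature, then flap DNA substrate added at 50 nM final. Signal read at 0 and 15 min; concentration-response fitted with four-parameter Hill equation.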
# % is scaled to controls: 0 for no effect and ±100 for the full control effect; potency is read from the fitted curve at half-maximal effect; tags tell the direction and shape of the fitted curve.
SMILES,Potency,"activity change, negative = inhibition"
CC(=O)c1ccc(N2CCN(S(=O)(=O)c3cc4[nH]c(=O)c(=O)[nH]c4cc3C)CC2)cc1,"inconclusive: 44.7 µM [inhibitor, partial curve, poor fit]",
C[C@H](CO)N1C[C@H](C)[C@@H](CN(C)C(=O)Nc2ccc(C(F)(F)F)cc2)Oc2ccc(NS(=O)(=O)c3ccc(F)cc3)cc2C1=O,"inconclusive: 79.4 µM [inhibitor, partial curve, poor fit]",
Cn1c2ccccc2c(=O)c2ccc(C#CC3(O)CCCCC3)cc21,"inconclusive: 39.8 µM [inhibitor, full curve]",
Cc1ccc2oc(=O)c3cc(C(=O)NCCCOC(C)C)sc3c2c1,,inactive: -1.12%
Cc1nc2ccccc2n1C1CCN(CC(=O)NCc2ccc(F)cc2)CC1,"inconclusive: 35.5 µM [inhibitor, partial curve, poor fit]",
O=C(O)/C(=C\c1ccco1)NC(=O)c1cccc2ccccc12,,inactive: -23.9%
O=C(N/N=C/c1ccc([N+](=O)[O-])o1)c1sc2ccccc2c1Cl,active: 39.8 µM,
N#C/C(=C\c1ccc(/C=C(/C#N)c2nn(CCO)c(N)c2C#N)cc1)c1nn(CCO)c(N)c1C#N,"inconclusive: 56.2 µM [inhibitor, partial curve, poor fit]",
CCCn1c2ccc(F)cc2c2nnc(SCCN3CCCCC3)nc21,"inconclusive: 79.4 µM [inhibitor, partial curve, poor fit]",
O=C(NCc1nc2ccccc2[nH]1)c1ccc(S(=O)(=O)N2CCCC2)cc1,,inactive: 3.61%
COc1cc(/C=C2\SC(=S)N(NC(=O)c3cccc(O)c3)C2=O)ccc1O,"inconclusive: 44.7 µM [inhibitor, partial curve, poor fit]",
O=C(NC(CSCc1ccccc1)C(=O)N/N=C/c1ccc(O)cc1O)c1ccc([N+](=O)[O-])cc1 (stereo unspecified),"inconclusive: 44.7 µM [inhibitor, partial curve, poor fit]",
CC(C)(C)c1ccc(S(=O)(=O)/C=C/C#N)cc1,"inconclusive: 89.1 µM [inhibitor, single point]",
CN(CC(=O)Nc1ccc(OC(F)F)cc1)S(=O)(=O)/C=C/c1ccccc1,"inconclusive: 44.7 µM [inhibitor, partial curve, poor fit]",
Cc1ccc(S(=O)(=O)N2CCCCC2)cc1NC(=O)CSc1ncn[nH]1,"inconclusive: 89.1 µM [inhibitor, single point]",
COc1cc(/C=C(\C#N)c2nc3ccc(C)cc3[nH]2)ccc1OCc1ccc(C)cc1,"inconclusive: 89.1 µM [inhibitor, single point]",
Cc1ccc(OCCSc2nc(-c3ccccc3C)nc3cc(=O)[nH]n23)cc1Cl,"inconclusive: 89.1 µM [inhibitor, single point]",
Cn1nc(-c2ccccc2F)c2cc(C(=O)NCc3ccccc3Cl)sc21,,inactive: 0.423%
Oc1c(Br)cc(/C=N/Nc2ccc(Cl)nn2)cc1Br,"inconclusive: 79.4 µM [inhibitor, partial curve, poor fit]",
Cc1occc1C(=O)NCc1cccc(CNC(=O)c2ccoc2C)c1,"inconclusive: 89.1 µM [inhibitor, partial curve, poor fit]",
CCOc1ccc(NCc2cccn2-c2nnc(N3CCC(C(=O)NCc4ccccc4Cl)CC3)s2)cc1,,inactive: 12.2%

SMILES,Potency,"activity change, negative = inhibition"
Cc1cc(=O)[nH]c(NN=Cc2cc(Br)ccc2O)n1,"inconclusive: 89.1 µM [inhibitor, partial curve, poor fit]",
COc1cc(/C=C2\C(C)=C(C#N)c3nc(N)c(C#N)c(C)c32)ccc1OCC(=O)O,"inconclusive: 56.2 µM [inhibitor, partial curve, poor fit]",
Clc1ccc(CNc2cnccn2)cc1Cl,,inactive: -1.74%
CCOc1ccc(Nc2nc(-c3cccc(Cl)c3)c3c(n2)-c2ccccc2OC3)cc1,"inconclusive: 56.2 µM [inhibitor, partial curve, poor fit]",
CCc1nnc(NC(=O)CSc2sc3c(O)cc(=O)[nH]c3c2C#N)s1,active: 4.47 µM,
Cc1cc(C)nc(-n2nc(C)c3c2N(Cc2ccccc2F)C(=O)CC3c2ccc(Cl)cc2)n1 (stereo unspecified),,inactive: 6.24%
O=C(O)c1ccc(N/N=C/c2ccc3c(c2)OCO3)cc1,,inactive: 7.59%
COc1ccc(-c2ccc3c(c2)S(=O)(=O)c2cccc(C(=O)NCc4ccccc4Cl)c2C3=O)cc1OC,"inconclusive: 89.1 µM [inhibitor, single point]",
O=C(/C=C/c1ccccc1)c1cc(Br)ccc(=O)c1O,"inconclusive: 39.8 µM [inhibitor, partial curve]",
O=C(c1cccc2ccccc12)N1CCCCC1,,inactive: 6.24%
COc1ccc(O)c(C(=O)c2cc(SCC(=O)O)c3nc4sc5c(c4c(=O)n3c2)CCCC5)c1,"inconclusive: 50.1 µM [inhibitor, partial curve, poor fit]",
CN(C(=O)COC(=O)c1ccccc1OCC(=O)Nc1ccc(Br)cc1)c1ccccc1,,inactive: 6.25%
O=c1c2ccccc2nc(N/N=C/c2c(O)ccc3ccccc23)n1O,"inconclusive: 39.8 µM [inhibitor, partial curve]",
CCOc1cc(C(=O)Nc2cc3c(cc2N2CCCC2)n(C)c(=O)c(=O)n3C)cc(OCC)c1OCC,,inactive: -1.21%
CC(C)(C)c1ccc(S(=O)(=O)/N=C2\C=C(NS(=O)(=O)c3ccccc3)C(=O)c3ccccc32)cc1,"inconclusive: 89.1 µM [inhibitor, single point]",
O=C(N/N=C/c1ccc[nH]1)c1ccccc1O,,inactive: 3.84%
CCCCN(C)CC(O)Cn1cc(/C=C/C(=O)c2ccc(Br)cc2)c2ccccc21 (stereo unspecified),"inconclusive: 89.1 µM [inhibitor, partial curve, poor fit]",
CC(=O)Nc1ccc(C=NNc2ccc(S(=O)(=O)Nc3ccccc3C(=O)O)cc2[N+](=O)[O-])cc1,active: 50.1 µM,
CC1=CC(C)(C)NC(=S)N1c1cccc2cc(S(=O)(=O)O)ccc12,"inconclusive: 15.8 µM [inhibitor, full curve, poor fit]",
CCOc1ccc2nc(NC(=O)c3nc(SCc4ccccc4F)ncc3Cl)sc2c1,,inactive: -3.29%
